# Measured values published in PubChem BioAssay AID602329 (Broad Institute, 2012).
# Out of some 360,000 compounds screened, about 510 (0.14%) were called active. Inconclusive results, whose numbers are uncertain, are shown with a selection of clear calls.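 Rule for the calls: active = mean normalized replicate activity at least 40 and at least half of replicates scoring 40 or more; inconclusive = only one of the two criteria met; inactive = mean below 40 and under half of replicates reaching 40.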
# Biological target: DNA repair and recombination protein RAD54-like (Homo sapiens) (UniProt Q92698)
# Sequence of UniProt Q92698 (Q92698 whole entry, looked up): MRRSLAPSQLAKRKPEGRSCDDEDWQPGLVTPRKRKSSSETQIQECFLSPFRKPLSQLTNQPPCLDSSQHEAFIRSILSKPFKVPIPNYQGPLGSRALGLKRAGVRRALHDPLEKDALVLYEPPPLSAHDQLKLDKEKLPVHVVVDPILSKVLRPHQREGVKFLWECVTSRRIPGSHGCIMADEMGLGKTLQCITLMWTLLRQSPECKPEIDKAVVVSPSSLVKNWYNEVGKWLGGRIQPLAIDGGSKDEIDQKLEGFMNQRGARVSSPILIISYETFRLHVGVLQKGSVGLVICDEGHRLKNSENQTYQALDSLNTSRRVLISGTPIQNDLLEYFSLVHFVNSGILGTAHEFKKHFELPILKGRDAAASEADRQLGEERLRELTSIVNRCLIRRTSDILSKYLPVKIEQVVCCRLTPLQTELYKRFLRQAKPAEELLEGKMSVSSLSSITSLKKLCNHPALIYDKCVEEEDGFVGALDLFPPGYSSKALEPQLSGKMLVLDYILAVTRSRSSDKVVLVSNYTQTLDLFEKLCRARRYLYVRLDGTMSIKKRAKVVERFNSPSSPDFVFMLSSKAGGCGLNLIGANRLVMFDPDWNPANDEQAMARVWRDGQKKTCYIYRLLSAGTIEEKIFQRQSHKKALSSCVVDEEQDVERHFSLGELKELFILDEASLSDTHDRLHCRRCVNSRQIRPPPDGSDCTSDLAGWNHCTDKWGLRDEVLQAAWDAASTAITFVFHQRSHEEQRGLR
# Experiment: RAD54 Holliday junction migration blockers – biochemical, fluorescence, single point, primary screen (AID 602329);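 note: 0% = median of neutral control wells and 100% = median of positive control wells; inhibitors cause a drop in the FAM fluorescence signal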
# Conditions: RAD54 Holliday junction branch migration, FAM/BHQ fluorescence; at 10.4 µM; stronger effect = higher value
row,Structure (SMILES),inhibition
1,C#CCOCCOCCOCCNc1nc(N2CCN(C(=O)[C@H](CCCCN)n3cc(CN)nn3)CC2)nc(N2CCN(C(=O)[C@H](CCCCN)n3cc([C@@H](N)[C@H](C)CC)nn3)CC2)n1,active: 79.2%
2,CN(C)CCCNc1nc2cc(-c3ccccc3)sc2c(=O)n1C,inconclusive: 47.3%
3,O=[N+]([O-])c1ccccc1/C=N/N1CCN(Cc2ccccc2)CC1,inactive: -0.0965%
4,COc1ccc(NC(=O)Nc2ccc3c(c2)CC(=O)N([C@H](C)CO)C[C@H](C)[C@H](CN(C)S(=O)(=O)c2ccc(OC)cc2)O3)cc1,inconclusive: 34.7%
5,NC(=NCc1ccccc1)NC(=O)c1nc(Cl)c(N)nc1N,inconclusive: 48.1%
6,COc1ccc(/C=C/C(=O)c2ccoc2)cc1,inactive: 5.83%
7,CCOC(=O)c1cnc2c(C)cc(C)cc2c1NCCCN1CCOCC1,active: 92.8%
8,c1ccc(-c2nc(NCCCn3ccnc3)c3oc4ccccc4c3n2)cc1,inconclusive: 49.8%
9,CN(C)CC(=O)Nc1ccc2c(c1)[C@H]1C[C@@H](CC(=O)N3CCOCC3)O[C@@H](CO)[C@H]1O2,inactive: -4.29%
10,CC(=O)Nc1cc(-c2ccc(N3CCN(C)CC3)cc2)cn2c(-c3cccc(C(C)=O)c3)cnc12,active: 79.4%
11,Cc1ccc(-c2nc(NCCCO)c3ccccc3n2)cc1,inconclusive: 45.6%
12,NC(=O)N=Nc1c2[nH]c3ccccc3nc-2c2ccccc12,inconclusive: 28.3%
13,CCOc1cc2[nH]c(=S)n(Cc3ccc(C(=O)NCCCN(CC)CC)cc3)c(=O)c2cc1OCC,active: 51.1%
14,COc1ccc(N2C(=O)CSC23CCCCC3)cc1,inconclusive: 43.6%
15,O=C1c2ccccc2C(=O)c2c1cccc2N1CCN(Cc2ccccc2)CC1,inconclusive: 48.5%
16,CCN(CC)CCN(C(=O)c1ccc2ncsc2c1)c1nc2cc3c(cc2s1)OCO3,inconclusive: 43.9%
17,Nc1ccc(S(=O)(=O)NNC(=O)C(=O)NNc2ccccn2)cc1,inactive: -6.95%
18,COc1cc(OC)c(-c2nn3c(-c4ccco4)nnc3s2)cc1OC,inconclusive: 41.7%
19,Cc1cccc(Cn2c(Sc3nc(C)cs3)nc3c2c(=O)[nH]c(=O)n3C)c1,inconclusive: 24.2%
20,CCCN(CCC)CCCNC(=O)c1cc2cc3ccc(OC)cc3nc2o1,inconclusive: 46.3%
21,Cc1ccc(S(=O)(=O)CCSc2ccc(C(F)(F)F)cn2)cc1,inconclusive: 35.3%
22,CCN(CC)CCCNC(=O)c1cc2c(-c3ccc(Cl)cc3)nn(C)c2s1,inconclusive: 48.3%
23,CCCNC(=O)N1C[C@@H](C)[C@@H](OC)CN(C)C(=O)c2ccc(NS(C)(=O)=O)cc2OC[C@H]1C,inactive: -0.333%
